From ChEMBL document CHEMBL4888484, “Replenishing the malaria drug discovery pipeline: Screening and hit evaluation of the MMV Hit Generation Library 1 (HGL1) against asexual blood stage Plasmodium falciparum ,using a nano luciferase reporter read-out” (2022) come the findings set out here.

As a reminder, the % Inhibition is the change of the read-out against control, counted positive when it falls.

About 540 (0.36%) of roughly 150,000 compounds showed an effect of 50% or more. The list shows a part of the results.

In this assay the test system is Plasmodium falciparum. Description: Primary screen in NF54 nanoGlo assay, in single point, at 2uM, 72h; a lower Z score goes with more inhibition. In kind it is functional, Erythrocyte. The settings on record: timepoint 72 hour.
Regarding `COc1cccc(C)c1C(=O)N(CCc1ccc(F)cc1)Cc1cccnc1`, the “% Inhibition” value is recorded as -10% and the Z score amounted to 1.86.

With `CC1(C(=O)Nc2nc3n(n2)CCCC3)CCOCC1`, the “% Inhibition” value was 6% and the Z score was -0.81.

Take `CCCN1CCN(C(=O)CN2C(=O)C(C)(C)c3cc(C)ccc32)CC1`: the “% Inhibition” value is recorded as -6% and the Z score amounted to 1.01.

Regarding `COCc1cn(C2CCN(C(=O)C3CCCCCC3)CC2)nn1`, the “% Inhibition” value is on record as -7% and the Z score amounted to 1.07.

For `O=C(NCc1ccc(Cl)cc1)c1ccc(-c2cccnc2)cc1`, the “% Inhibition” value is recorded as -3% and the Z score is 0.45.

For `Cn1nc2n(c1=O)C[C@@H](C(=O)NCc1ccccc1Cl)CC2`, the “% Inhibition” value is listed as -2% and the Z score was determined as 0.38.

For the molecule `O=C(NCCn1cc(-c2nc(-c3cccnc3)no2)nn1)c1cccc(Cl)c1`, the “% Inhibition” value was -8% and the Z score was 1.59.

Turning to `CC(C)c1nnsc1C(=O)N1CCc2nocc2C1`, the “% Inhibition” value was determined as 8% and the Z score was -1.63.

With `O=C(c1cc(CO)ccn1)N(Cc1nccs1)C1CC1`, the “% Inhibition” value is on record as -19% and the Z score came to 2.98.

As for `CCc1ncc(C(=O)N(C)C[C@H]2CCCCO2)cn1`, the “% Inhibition” value is reported as 0% and the Z score came out at 0.03.

Consider `CN1C(=O)N(C)[C@H]2C[C@@H]1N(C)C(=O)N2C`, for which the “% Inhibition” value turned out to be 4% and the Z score is recorded as -0.62.

Turning to `CS(=O)(=O)N1CC(C(=O)NC2CCCC2)C1`, the “% Inhibition” value is recorded as -12% and the Z score amounted to 1.81.

With `O=C(O)CCc1cc2n(n1)CCCN(Cc1ccc(Cl)s1)C2`, the “% Inhibition” value was 11% and the Z score was -1.28.

Consider `Cc1ccc(O)cc1C(=O)N[C@@H]1C[C@H]2OCC[C@@H]12`, for which the “% Inhibition” value is -7% and the Z score was found to be 1.16.

`COCC1(CNC(=O)N[C@H]2CC[C@@H](C(=O)N3CCCC3)C2)CCC1`: the “% Inhibition” value is -5% and the Z score turned out to be 0.98.

Take `Clc1ccc2nc3c(c(-c4ccccc4Cl)c2c1)-c1ccccc1CC3`: the “% Inhibition” value was -3% and the Z score amounted to 0.57.

As for `CC(C)(C)c1ccc(S(=O)(=O)N2C3C=CCC2CC3)cc1` (stereo unspecified), the “% Inhibition” value is -1% and the Z score is 0.17.

`Cn1ccc(CS(=O)(=O)CC(=O)NCC2CCCCC2)cc1=O`: the “% Inhibition” value came to 1% and the Z score is -0.15.

Take `CCn1cc(S(=O)(=O)NCCOc2cncc(Cl)c2)cn1`: the “% Inhibition” value was 6% and the Z score is -0.73.

For the molecule `CC(C)c1nn(C)cc1-c1noc(C(F)(F)C2CCNCC2)n1`, the “% Inhibition” value is listed as 4% and the Z score is recorded as -0.69.

In the case of `Cc1cccc(C[C@@H](CNC(=O)Cc2ccc(C)nc2)C(=O)O)c1`, the “% Inhibition” value worked out at 5% and the Z score is -0.88.

As to `O=C(NCCc1cccc(-c2ccccc2)c1)[C@@H]1COCCO1`, the “% Inhibition” value is given as -17% and the Z score came to 1.73.

On to `O=C1CCN(Cc2cccc(OCCCCN3CCOCC3)c2)CCN1`, for which the “% Inhibition” value is listed as -2% and the Z score stood at 0.33.

Regarding `O=C(NC[C@H](c1ccc(F)cc1)c1c[nH]c2ccccc12)NC1CCCCC1`, the “% Inhibition” value was -7% and the Z score was 1.34.

Regarding `Cc1c(C)c2ccc(NC(=O)c3cc4ccccc4o3)cc2[nH]c1=O`, the “% Inhibition” value is reported as 93% and the Z score was -7.22.

`C[C@H]1CCN(c2cc(C(=O)Nc3ccc(Br)cn3)ccn2)C1`: the “% Inhibition” value is recorded as -5% and the Z score was 0.73.

Consider `COC(=O)c1cn(-c2cccc(C(=O)NCc3cccnc3)c2)cc2c(O)nnc1-2`, for which the “% Inhibition” value is reported as -13% and the Z score amounted to 1.67.

Regarding `O=C(NCc1nnc2ccc(N3CCCC3)nn12)c1ccc[nH]c1=O`, the “% Inhibition” value turned out to be 16% and the Z score is -2.09.

Regarding `CN1CCC[C@H](Cn2ccc(-c3cccc(-c4nccs4)c3)n2)C1`, the “% Inhibition” value is recorded as -5% and the Z score is on record as 0.86.

`CO[C@H]1CCN(C(=O)NCC2(c3ccccn3)CCC2)CC1(C)C`: the “% Inhibition” value is given as -12% and the Z score is given as 1.65.

Regarding `O=C1CC[C@@H](C(=O)NCc2ccc(OCc3ccccc3F)cc2)N1`, the “% Inhibition” value was -13% and the Z score is 1.17.

Consider `C#CC(C)(C)N(C)S(=O)(=O)c1c(C)noc1C`, for which the “% Inhibition” value is on record as -3% and the Z score amounted to 0.4.

In the case of `COc1ccc(-c2cc3n(C)c(C)c(CCC(=O)NC4CCCCC4)c(=O)n3n2)cc1`, the “% Inhibition” value was 4% and the Z score was -0.47.

`CC(C)NC(=O)Nc1cc(OCc2ccccc2)ncn1`: the “% Inhibition” value was -2% and the Z score came out at 0.37.

For the molecule `O=S1(=O)CCC(O)(CNc2cc(C3CC3)nc(C3CC3)n2)CC1`, the “% Inhibition” value came out at 0% and the Z score is reported as 0.09.

Take `Cc1cc(O)n2nc(CC(=O)NCc3cc(C4CC4)on3)nc2n1`: the “% Inhibition” value is -13% and the Z score amounted to 1.67.

As to `COC[C@@H]1[C@H](C(=O)NCc2cc(F)cc(F)c2)CCCN1C`, the “% Inhibition” value was 7% and the Z score was -1.3.

With `Nc1ncnc(NC2CCCCC2n2cccn2)c1Cl` (stereo unspecified), the “% Inhibition” value is -10% and the Z score was 1.22.

Consider `O=C(Nc1cnc2ccnn2c1)C1CCCC1`, for which the “% Inhibition” value came to 12% and the Z score is -1.62.

Turning to `C[C@H]1CCc2c(sc(NC(=O)CCC(=O)O)c2C(=O)N2CCOCC2)C1`, the “% Inhibition” value was -17% and the Z score was found to be 2.41.

Turning to `COCC(=O)N[C@@H]1CN(C(=O)NCc2ccc(F)cc2)CC[C@@H]1c1nc(C)no1`, the “% Inhibition” value is recorded as 2% and the Z score was -0.27.

Take `CN[C@@H](C)c1nc(C2CCOCC2)nn1CC1CCCCC1`: the “% Inhibition” value is reported as -16% and the Z score came to 1.79.

As for `Cc1ccc(NC(=O)c2csc(CN(Cc3ccc(F)cc3)Cc3ccc(Cl)cc3)n2)cc1`, the “% Inhibition” value was -15% and the Z score was 1.51.
